Test results: PubChem BioAssay AID485294 (National Center for Advancing Translational Sciences (NCATS), 2010)
Screen size: about 370,000 compounds; about 150 (0.041%) were called active. Inconclusive means that the source gave no clear call. Such entries were picked first, then a sample of the others. Calls follow the shape of the dose curve; as a rule, active = well fitted inhibition curve with a large enough effect; inconclusive = small, poorly fitted or top-dose-only effect; inactive = flat fitted curve, though single readings scatter. Potencies of inconclusive entries are left out as doubtful fits.

These compounds were tested against Beta-lactamase (Escherichia coli (strain K12)) (UniProt P00811) (assay: qHTS Inhibitors of AmpC Beta-Lactamase (assay with detergent)). Conditions: AmpC hydrolysis of nitrocefin, absorbance 480 nm, 0.01% Triton; activity change, negative = inhibition: at 114 µM (top of the series).
How it was run: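 20 mM phosphate pH 7.0 + 0.01% (detergent screen) or 0.0001% Triton X-100; 5.3 nM AmpC reagent; cpd preinc 15 min RT; nitrocefin (800 uM stock) to start; A480 q20 s × 4 min; Activity was normalised to no-enzyme and no-compound control wells.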
Also: nearly all actives have a fitted effect of over 25% in size.
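For activity change, negative = inhibition in this document: 0% = no-compound wells and -100% = no-enzyme wells.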
Potency is read from the fitted curve at half-maximal effect; tags tell the direction and shape of the fitted curve.

Chain of UniProt P00811 (P00811 whole entry, looked up): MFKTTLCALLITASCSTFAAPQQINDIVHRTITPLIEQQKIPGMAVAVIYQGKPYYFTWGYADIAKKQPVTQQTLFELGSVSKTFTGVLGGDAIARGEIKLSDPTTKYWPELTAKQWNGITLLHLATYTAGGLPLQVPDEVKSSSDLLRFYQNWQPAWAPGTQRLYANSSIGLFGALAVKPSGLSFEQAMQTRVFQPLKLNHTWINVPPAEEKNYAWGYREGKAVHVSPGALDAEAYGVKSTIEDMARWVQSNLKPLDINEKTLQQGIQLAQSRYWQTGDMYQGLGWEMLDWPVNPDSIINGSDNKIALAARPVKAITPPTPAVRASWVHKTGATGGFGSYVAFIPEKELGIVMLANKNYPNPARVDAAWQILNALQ

SMILES	activity change, negative = inhibition	Potency
CN(c1ccccc1)S(=O)(=O)c1cccc(NC(=O)CN2C(=O)NC3(CCCCC3)C2=O)c1	inactive: -6.64%	–
COc1ccccc1N1CCN(C(c2ccccc2Cl)c2nnnn2C(C)(C)C)CC1 (centres undefined)	inactive: -10.8%	–
CC(Cc1cccs1)NC(=O)NC1CCCCC1 (centres undefined)	–	inconclusive [inhibitor, full curve, poor fit]
CCOC(=O)CCc1c(C)nc(SCC(=O)O)c(C#N)c1C	–	inconclusive [inhibitor, full curve, poor fit]
COc1ccc(CCNC(=O)C(C)c2ccc([N+](=O)[O-])cc2)cc1 (centres undefined)	–	inconclusive [inhibitor, full curve]
O=C1c2ccccc2C(O)N1c1ccc(Cl)cc1 (centres undefined)	–	inconclusive [inhibitor, partial curve]
Cc1ccc2nc(-c3ccc(O)cc3)c(Nc3ccc4c(c3)OCCO4)n2c1	–	inconclusive [inhibitor, full curve]
CCCCn1c(N)c(N(CCOC)C(=O)c2cc(CC)c(C)s2)c(=O)[nH]c1=O	–	inconclusive [inhibitor, single point]
Cc1c(C(=O)N2c3ccccc3Sc3ccccc32)cccc1[N+](=O)[O-]	–	inconclusive [inhibitor, single point]
COc1ccccc1C(=O)NC1CC(C)(C)NC(C)(C)C1	–	inconclusive [inhibitor, partial curve]
O=C(OCC(=O)N1CCCCC1)c1n[nH]c(=O)c2ccccc12	–	inconclusive [inhibitor, full curve, poor fit]
Cc1ccsc1/C=C(\C#N)C(=O)NCc1cccnc1	–	inconclusive [inhibitor, partial curve, poor fit]
CCCCN1c2cc(C)c(O)cc2C(C(=O)OCC)C1C (centres undefined)	–	inconclusive [inhibitor, single point]
O=C(Nc1cccc(S(=O)(=O)N2CCCCC2)c1)c1ccc(N2CCCC2=O)cc1	–	inconclusive [inhibitor, full curve, poor fit]
CC(C)CC(C(=O)NC1CCCCC1)N(Cc1ccccc1)C(=O)c1snc(C(N)=O)c1N (centres undefined)	–	inconclusive [inhibitor, full curve]
CN1CCN(S(=O)(=O)c2ccc([N+](=O)[O-])cc2)CC1	–	inconclusive [inhibitor, partial curve, poor fit]
CCN1CCN(C(=O)N[C@@H](C(=O)N[C@@H]2C(=O)N3[C@@H]2SC(C)(C)[C@@H]3C(=O)O)c2ccccc2)C(=O)C1=O	–	inconclusive [inhibitor, partial curve]
Cc1cc(C)c(C#N)c(Oc2ccc(O)cc2)n1	–	inconclusive [inhibitor, full curve, poor fit]
COc1ccc(OC)c(NC(=O)Cn2c(=O)n(Cc3ccccc3)c(=O)c3ccccc32)c1	inactive: 5.51%	–
COCc1cc(C)nc(SCC(=O)Nc2nc(C)cs2)c1C#N	–	inconclusive [inhibitor, partial curve]
COc1ccc(/C=N/OCC(=O)N=Nc2c(O)[nH]c3ccc(Br)cc23)cc1	–	inconclusive [inhibitor, partial curve]
COc1ccc(OC)c(N2C(=O)/C(=C/c3ccco3)C(=O)NC2=S)c1	–	active: 50.1 µM
Cc1cc2occ(CC(=O)NNC(=O)c3ccccc3)c2cc1C	inactive: -9.74%	–

SMILES	activity change, negative = inhibition	Potency
C=CCOC(=O)C(C#N)c1nc2ccccc2nc1N1CCN(c2ccccc2OC)CC1 (centres undefined)	inactive: -5.96%	–
Cc1ccc(N2C(=S)N=C(Nc3ccccc3C)C23CCOC(C)(C)C3)cc1 (centres undefined)	inactive: -0.227%	–
COc1ccccc1/C=C(/C(=O)OCC(=O)Nc1ccc(N(C)C)cc1)c1ccccc1	–	inconclusive [inhibitor, partial curve]
O=C(NCc1ccco1)c1ccccc1O	–	inconclusive [inhibitor, partial curve, poor fit]
O=C(Nc1nc2c(cc3c4c(cccc42)CC3)s1)c1ccccc1Cl	inactive: -1.03%	–
CCN(C(=O)c1c(-c2ccccc2)noc1C)c1ccccc1	–	inconclusive [inhibitor, single point]
CCCCCC(=O)Nc1cc(S(=O)(=O)N2CCOCC2)ccc1Oc1ccc(OCC)cc1	–	inconclusive [inhibitor, full curve, poor fit]
N#CCC(=O)N/N=C\c1ccc(OC/C=C/c2ccccc2)cc1	–	inconclusive [inhibitor, full curve]
CCOC(=O)C(CC)Sc1ccc2nnc(CCNS(=O)(=O)c3ccc(C)cc3)n2n1 (centres undefined)	inactive: 20.3%	–
Oc1ccc(Nc2nc(-c3ccc4ccccc4c3)cs2)cc1	–	inconclusive [inhibitor, partial curve, poor fit]
CCNC(=O)COc1cccc(C(=O)NCc2ccccc2)c1	–	inconclusive [inhibitor, full curve, poor fit]
CCN(CC)CCCN(C(=O)c1cccc(C)c1)c1nc(-c2ccc(OC)cc2)cs1	–	inconclusive [inhibitor, partial curve, poor fit]
COc1ccc(CN(C(=O)c2ccco2)c2ccccc2)cc1	–	inconclusive [inhibitor, single point]
Cc1nc(N2CCN(S(=O)(=O)c3cccc4nonc34)CC2)c2c3c(sc2n1)CCCC3	–	inconclusive [inhibitor, partial curve]
Clc1cccc(-c2ccc(CNCc3ccccn3)o2)c1	inactive: 5.89%	–
CCOC(=O)C1(Cc2cccc(Cl)c2)CCCN(C(=O)c2cccnc2)C1 (centres undefined)	inactive: -6.39%	–
COc1cc(NC(=O)c2ccc(COCC(F)(F)F)o2)cc(OC)c1OC	–	inconclusive [inhibitor, full curve, poor fit]
CN(C)S(=O)(=O)c1cccc(NS(=O)(=O)c2ccc(Cl)s2)c1	–	inconclusive [inhibitor, partial curve]
CC(=O)Oc1cccc(NC(=O)c2cccc(C(=O)Nc3cccc(OC(C)=O)c3)c2)c1	–	inconclusive [inhibitor, partial curve, poor fit]
CC(=O)c1cccc(NC(=O)C2CCCC2)c1	–	inconclusive [inhibitor, full curve]
CN1C(=O)C(C)(C)c2cc(S(=O)(=O)N3CCCCCC3)ccc21	–	inconclusive [inhibitor, full curve]
CCCCC1(CO)C(=O)N(c2ccccc2)N(c2ccccc2)C1=O	inactive: 0.482%	–
Cc1cc(/C=N/NC(=O)Cn2c3ccccc3c(=O)c3ccccc32)c(C)n1-c1ccccc1	inactive: -0.166%	–

SMILES	activity change, negative = inhibition	Potency
Cc1cc(C)cc(NS(=O)(=O)c2ccc3c(c2)NC(=O)C(C)S3)c1 (centres undefined)	inactive: 13.6%	–
Cc1nc2ccccc2n1CCc1nc2c3ccccc3nc(SCC(=O)NCc3ccco3)n2n1	inactive: -6.15%	–
O=C(COC(=O)c1cccs1)NC1CCCCC1	–	inconclusive [inhibitor, full curve, poor fit]
Cc1ccc2[nH]c(=O)c(CN(Cc3cccnc3)C(=S)NCCCN(C)C)cc2c1	inactive: 2.26%	–
O=C1c2ccccc2CN1c1ccccc1	–	inconclusive [inhibitor, full curve]
O=C(Nc1cc(-c2nc3ncccc3o2)ccc1Cl)c1ccc([N+](=O)[O-])o1	inactive: 0.121%	–
O=C(O)C(Cc1cnc[nH]1)NS(=O)(=O)c1ccc(Cl)cc1 (centres undefined)	–	inconclusive [inhibitor, full curve, poor fit]
CC(C)=N/N=c1\scc(C)n1Cc1ccco1	inactive: -6.99%	–
O=C(NCc1nnnn1-c1ccc(Cl)cc1)c1ccc(Br)o1	–	inconclusive [inhibitor, full curve]
O=c1cc(N2CCc3ccccc3C2)[nH]c(=O)n1-c1ccccc1Cl	inactive: -1.04%	–
CCCCCCCCCCOC(=O)Cn1c(COc2ccccc2OC)[n+](C)c2ccccc21	inactive: 0.909%	–
CCCCN(CC)CCCNC(=O)c1cc2c(=O)n(C)c3ccccc3c2n1C	–	inconclusive [inhibitor, partial curve, poor fit]
Cc1cc2n(n1)C(c1ccccc1)Nc1ccccc1-2 (centres undefined)	inactive: 0.0996%	–
CC(=O)OC[C@H]1O[C@@H](n2ccc(=O)[nH]c2=S)C(OC(C)=O)C1OC(C)=O (some centres undefined)	–	inconclusive [inhibitor, partial curve]
Cc1cccc(-n2c(=O)c3c4c(sc3n3cnnc23)CCCC4)c1	inactive: 13.4%	–
CCN1CCN(c2c(S(=O)(=O)c3ccc(C)c(C)c3)cnc3cc(OC)c(OC)cc23)CC1	inactive: -4.06%	–
COC(=O)c1cc(Cl)c(N)cc1OC	–	inconclusive [inhibitor, full curve, poor fit]
COc1ccc(NC(=O)c2ccco2)cc1NC(=O)c1cccc(F)c1	–	inconclusive [inhibitor, partial curve, poor fit]
O=C(COc1ccc2c(c1)OCO2)Nc1ccccc1F	–	inconclusive [inhibitor, single point]
CN(CC(=O)Nc1ccc(S(=O)(=O)N2CCCC2)cc1)Cc1ccc(Cl)c(Cl)c1	–	inconclusive [inhibitor, full curve, poor fit]
CCC(C)(C)C(=O)Nc1cc([N+](=O)[O-])ccc1F	–	inconclusive [inhibitor, full curve]
CC1=C(C)/C(=N\OC(=O)/C=C/c2ccccc2)C=CC1=O	inactive: -21.1%	–
CCOc1ccc(NC(=O)C(NC(=O)C2CCC(C)CC2)C(C)C)cc1 (centres undefined)	–	inconclusive [inhibitor, partial curve, poor fit]
